Data taken from the supplement of paper PMC8728848.
Some of the results follow.

Experiments:
Assay in all cases: glycan array binding signal (z-score within array); higher = stronger binding
Conditions in all cases: glycan notation: IUPAC condensed, linker removed
[1] = target: Gal(a1-6)Glc
Method in brief: (§1)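 Negative Z-scores can be read as non-binding. The Z-score is calculated within each array and then averaged across arrays of one protein sequence at different concentrations or buffers and across linkers. Arrays, 3228 in all, were curated from the Consortium for Functional Glycomics database and kept only where the protein sequence was available.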

[2] = target: Gal(b1-2)Gal
Method in brief: as §1

[3] = target: Gal(b1-3)Gal
Method in brief: as §1

[4] = target: Gal(b1-3)Gal(b1-4)GlcNAc
Method in brief: as §1

[5] = target: Gal(b1-3)GalNAc
Method in brief: as §1

[6] = target: Gal(b1-3)GalNAc(a1-3)[Fuc(a1-2)]Gal(b1-4)Glc
Method in brief: as §1

[7] = target: Gal(b1-3)GalNAc(a1-3)[Fuc(a1-2)]Gal(b1-4)GlcNAc
Method in brief: as §1

[8] = target: Gal(b1-3)GalNAc(b1-3)Gal
Method in brief: as §1

[9] = target: Gal(b1-3)GalNAc(b1-3)Gal(a1-4)Gal(b1-4)Glc
Method in brief: as §1

[10] = target: Gal(b1-3)GalNAc(b1-4)Gal(b1-4)Glc
Method in brief: as §1

[11] = target: Gal(b1-3)GalNAc(b1-4)[Neu5Ac(a2-3)]Gal(b1-4)Glc
Method in brief: as §1

[12] = target: Gal(b1-3)GlcNAc
Method in brief: as §1

[13] = target: Gal(b1-3)GlcNAc(a1-3)Gal(b1-4)GlcNAc
Method in brief: as §1

[14] = target: Gal(b1-3)GlcNAc(a1-6)Gal(b1-4)GlcNAc
Method in brief: as §1

[15] = target: Gal(b1-3)GlcNAc(b1-2)Man
Method in brief: as §1

[16] = target: Gal(b1-3)GlcNAc(b1-2)Man(a1-3)[Gal(b1-3)GlcNAc(b1-2)Man(a1-6)]Man(b1-4)GlcNAc(b1-4)GlcNAc
Method in brief: as §1

[17] = target: Gal(b1-3)GlcNAc(b1-2)Man(a1-3)[Gal(b1-3)GlcNAc(b1-2)Man(a1-6)]Man(b1-4)GlcNAc(b1-4)[Fuc(a1-6)]GlcNAc
Method in brief: as §1

[18] = target: Gal(b1-3)GlcNAc(b1-2)Man(a1-3)[GlcNAc(b1-4)][Gal(b1-3)GlcNAc(b1-2)Man(a1-6)]Man(b1-4)GlcNAc(b1-4)GlcNAc
Method in brief: as §1

[19] = target: Gal(b1-3)GlcNAc(b1-2)[Gal(b1-3)GlcNAc(b1-6)]Man(a1-6)[Gal(b1-3)GlcNAc(b1-2)Man(a1-3)]Man(b1-4)GlcNAc(b1-4)GlcNAc
Method in brief: as §1

[20] = target: Gal(b1-3)GlcNAc(b1-3)Gal(b1-3)GlcNAc
Method in brief: as §1

[21] = target: Gal(b1-3)GlcNAc(b1-3)Gal(b1-4)Glc
Method in brief: as §1

[22] = target: Gal(b1-3)GlcNAc(b1-3)Gal(b1-4)GlcNAc
Method in brief: as §1

[23] = target: Gal(b1-3)GlcNAc(b1-3)Gal(b1-4)GlcNAc(b1-2)Man(a1-3)[Gal(b1-3)GlcNAc(b1-3)Gal(b1-4)GlcNAc(b1-2)Man(a1-6)]Man(b1-4)GlcNAc(b1-4)GlcNAc
Method in brief: as §1

[24] = target: Gal(b1-3)GlcNAc(b1-3)Gal(b1-4)GlcNAc(b1-2)[Gal(b1-3)GlcNAc(b1-3)Gal(b1-4)GlcNAc(b1-6)]Man(a1-6)[Gal(b1-3)GlcNAc(b1-3)Gal(b1-4)GlcNAc(b1-2)Man(a1-3)]Man(b1-4)GlcNAc(b1-4)[Fuc(a1-6)]GlcNAc
Method in brief: as §1

[25] = target: Gal(b1-3)GlcNAc(b1-3)Gal(b1-4)GlcNAc(b1-3)Gal(b1-4)GlcNAc(b1-2)[Gal(b1-3)GlcNAc(b1-3)Gal(b1-4)GlcNAc(b1-3)Gal(b1-4)GlcNAc(b1-6)]Man(a1-6)[Gal(b1-3)GlcNAc(b1-3)Gal(b1-4)GlcNAc(b1-3)Gal(b1-4)GlcNAc(b1-2)Man(a1-3)]Man(b1-4)GlcNAc(b1-4)[Fuc(a1-6)]GlcNAc
Method in brief: as §1

[26] = target: Gal(b1-3)GlcNAc(b1-3)Gal(b1-4)GlcNAc(b1-6)[Gal(b1-3)GlcNAc(b1-3)]Gal(b1-4)Glc
Method in brief: as §1

[27] = target: Gal(b1-3)GlcNAc(b1-3)Gal(b1-4)[Fuc(a1-3)]GlcNAc
Method in brief: as §1

[28] = target: Gal(b1-3)GlcNAc(b1-3)Gal(b1-4)[Fuc(a1-3)]GlcNAc(b1-6)[Gal(b1-3)GlcNAc(b1-3)]Gal(b1-4)Glc
Method in brief: as §1

[29] = target: Gal(b1-3)GlcNAc(b1-3)GalNAc
Method in brief: as §1

[30] = target: Gal(b1-3)GlcNAc(b1-6)Gal(b1-4)GlcNAc
Method in brief: as §1

[31] = target: Gal(b1-3)GlcNAc(b1-6)GalNAc
Method in brief: as §1

[32] = target: Gal(b1-3)GlcNAc(b1-6)[Gal(b1-3)]GalNAc
Method in brief: as §1

[33] = target: Gal(b1-3)GlcNAc6S
Method in brief: as §1

[34] = target: Gal(b1-3)[Fuc(a1-4)]GlcNAc
Method in brief: as §1

[35] = target: Gal(b1-3)[Fuc(a1-4)]GlcNAc(b1-2)Man
Method in brief: as §1

[36] = target: Gal(b1-3)[Fuc(a1-4)]GlcNAc(b1-2)Man(a1-3)[Gal(b1-3)[Fuc(a1-4)]GlcNAc(b1-2)Man(a1-6)]Man(b1-4)GlcNAc(b1-4)[Fuc(a1-6)]GlcNAc
Method in brief: as §1

[37] = target: Gal(b1-3)[Fuc(a1-4)]GlcNAc(b1-3)Gal(b1-3)[Fuc(a1-4)]GlcNAc
Method in brief: as §1

[38] = target: Gal(b1-3)[Fuc(a1-4)]GlcNAc(b1-3)Gal(b1-4)[Fuc(a1-3)]GlcNAc
Method in brief: as §1

[39] = target: Gal(b1-3)[Fuc(a1-4)]GlcNAc(b1-6)GalNAc
Method in brief: as §1

[40] = target: Gal(b1-3)[GlcNAc(b1-6)]GalNAc
Method in brief: as §1

[41] = target: Gal(b1-3)[Neu5Ac(a2-6)]GalNAc
Method in brief: as §1

[42] = target: Gal(b1-3)[Neu5Ac(a2-6)]GlcNAc(b1-4)Gal(b1-4)Glc
Method in brief: as §1

[43] = target: Gal(b1-3)[Neu5Ac(b2-6)]GalNAc
Method in brief: as §1

[44] = target: Gal(b1-4)Gal
Method in brief: as §1

[45] = target: Gal(b1-4)GalNAc(a1-3)[Fuc(a1-2)]Gal(b1-4)GlcNAc
Method in brief: as §1

B1: HML-Native (Hypnea musciformis), P84871 (protein)
chain: QKFCTLDIAPVCCQIVIGGGMYTAGNACMCEGFVSGVGRCENPKECPCTREAQIPSCCSSRWGLVSVTGKCACDCLGGTVAFPEPCPSPY
With B1 the “glycan array binding signal (z-score)” value [1] was -0.261, the “glycan array binding signal (z-score)” value [2] was -0.247 and the “glycan array binding signal (z-score)” value [3] was -0.173. For the same binder, the “glycan array binding signal (z-score)” value [4] was -0.348, the “glycan array binding signal (z-score)” value [5] was -0.245 and the “glycan array binding signal (z-score)” value [6] was -0.277. The “glycan array binding signal (z-score)” value [7] was -0.299, the “glycan array binding signal (z-score)” value [8] was -0.308 and the “glycan array binding signal (z-score)” value [9] was -0.12. For the same binder, the “glycan array binding signal (z-score)” value [10] was -0.187, the “glycan array binding signal (z-score)” value [11] was -0.318 and the “glycan array binding signal (z-score)” value [12] was -0.171. For the same binder, the “glycan array binding signal (z-score)” value [13] was -0.285, the “glycan array binding signal (z-score)” value [14] was -0.32 and the “glycan array binding signal (z-score)” value [15] was -0.116. The “glycan array binding signal (z-score)” value [16] was -0.216, the “glycan array binding signal (z-score)” value [17] was 5.16 and the “glycan array binding signal (z-score)” value [18] was -0.276. The “glycan array binding signal (z-score)” value [19] was -0.26, the “glycan array binding signal (z-score)” value [20] was -0.251 and the “glycan array binding signal (z-score)” value [21] was -0.202. The “glycan array binding signal (z-score)” value [22] was -0.308, the “glycan array binding signal (z-score)” value [23] was -0.19 and the “glycan array binding signal (z-score)” value [24] was -0.074. The “glycan array binding signal (z-score)” value [25] was 1.92, the “glycan array binding signal (z-score)” value [26] was -0.208 and the “glycan array binding signal (z-score)” value [27] was -0.179. For the same binder, the “glycan array binding signal (z-score)” value [28] was -0.289, the “glycan array binding signal (z-score)” value [29] was -0.362 and the “glycan array binding signal (z-score)” value [30] was -0.24. For the same binder, the “glycan array binding signal (z-score)” value [31] was -0.294, the “glycan array binding signal (z-score)” value [32] was -0.208 and the “glycan array binding signal (z-score)” value [33] was -0.305. The “glycan array binding signal (z-score)” value [34] was -0.267, the “glycan array binding signal (z-score)” value [35] was -0.178 and the “glycan array binding signal (z-score)” value [36] was 2.92. For the same binder, the “glycan array binding signal (z-score)” value [37] was -0.247, the “glycan array binding signal (z-score)” value [38] was -0.208 and the “glycan array binding signal (z-score)” value [39] was -0.165. For the same binder, the “glycan array binding signal (z-score)” value [40] was -0.254, the “glycan array binding signal (z-score)” value [41] was -0.275 and the “glycan array binding signal (z-score)” value [42] was -0.125. For the same binder, the “glycan array binding signal (z-score)” value [43] was -0.25, the “glycan array binding signal (z-score)” value [44] was -0.238 and the “glycan array binding signal (z-score)” value [45] was -0.284.
